For some of these results: Not every detail of the peptide structures is certain; ends, links or a residue may be inferred. For some of these results: For at least one compound, name, drawing or mass did not settle the structure. Where a SMILES comes first, the peptide text is derived from it. [ ]: non-standard residue; d: D form. The star is where a group is joined. Acetyl(4-Me-piperazin-1-yl) = CN1CCN(CC(=O)*)CC1; Biotin = O=C1N[C@H]2[C@H](CS[C@H]2CCCCC(=O)*)N1; Gly(cPent) = N[C@H](C(=O)O)C1CCCC1; Cha = N[C@@H](CC1CCCCC1)C(=O)O
What was measured:
ERG = target: T1, ERG (Homo sapiens, UniProt P11308); assay: Kd[μM]
T1 construct: cDNAs encoding full-length ERG and GUS were cloned into pDEST10 vector; His; made in house; host or cells: SF9 insect cells (Bac-to-Bac baculovirus)

VCaP cells [1] = assay: Cell viability by CellTiter-Glo assay; format: cell-based; settings: starting at day 5, dosage of 10 μM and above
ETV1 = target: T2, ETV1 (Homo sapiens, UniProt P50549); assay: Immunoblot of ETV1 in treated LNCaP cells; format: cell-based; set-up: pulled down endogenous ETV1 from LNCaP cells; endogenous in cells; host or cells: LNCaP cells; settings: 48 hours post-treatment, dose dependent
T2 sequence (P50549 1-477): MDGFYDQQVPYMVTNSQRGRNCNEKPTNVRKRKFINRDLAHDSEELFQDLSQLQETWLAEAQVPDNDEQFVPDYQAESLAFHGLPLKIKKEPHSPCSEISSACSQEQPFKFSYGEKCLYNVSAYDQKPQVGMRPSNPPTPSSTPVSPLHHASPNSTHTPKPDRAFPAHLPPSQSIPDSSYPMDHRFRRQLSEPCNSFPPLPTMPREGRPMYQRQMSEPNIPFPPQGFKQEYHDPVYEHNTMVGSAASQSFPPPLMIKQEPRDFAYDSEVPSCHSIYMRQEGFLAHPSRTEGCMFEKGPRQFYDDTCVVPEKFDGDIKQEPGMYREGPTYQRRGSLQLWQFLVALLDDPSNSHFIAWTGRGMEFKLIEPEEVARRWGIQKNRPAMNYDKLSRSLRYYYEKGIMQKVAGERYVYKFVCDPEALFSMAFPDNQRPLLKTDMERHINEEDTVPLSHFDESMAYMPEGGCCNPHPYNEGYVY

ERG_Y373A = target: T3, ERG_Y373A (Homo sapiens, UniProt P11308, Y373A); assay: Pull-down of purified recombinant proteins with biotin-peptides; format: binding; settings: purified recombinant protein
T3 sequence (P11308 1-479 Y373A): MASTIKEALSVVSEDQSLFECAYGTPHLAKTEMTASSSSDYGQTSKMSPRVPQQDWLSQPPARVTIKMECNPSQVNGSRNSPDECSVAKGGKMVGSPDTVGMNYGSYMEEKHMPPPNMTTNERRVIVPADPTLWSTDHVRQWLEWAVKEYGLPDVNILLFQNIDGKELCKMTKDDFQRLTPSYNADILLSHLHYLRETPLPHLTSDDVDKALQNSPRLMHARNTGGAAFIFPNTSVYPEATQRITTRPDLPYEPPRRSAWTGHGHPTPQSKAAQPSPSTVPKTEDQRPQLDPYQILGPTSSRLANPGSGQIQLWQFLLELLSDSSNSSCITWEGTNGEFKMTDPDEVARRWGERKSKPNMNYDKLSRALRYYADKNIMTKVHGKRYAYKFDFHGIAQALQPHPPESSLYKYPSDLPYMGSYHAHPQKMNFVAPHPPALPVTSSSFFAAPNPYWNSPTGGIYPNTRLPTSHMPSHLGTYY

[2] = system: ETV1-positive, primary human prostate cancer (MDA-PCa-2b-T); assay: ETV1-positive primary prostate cancer serial xenograft; format: in vivo, mice; settings: MDA-PCa-2b-T serial xenografts
MS1 = assay: Matrigel tube formation assay; format: cell-based, mouse; settings: 10 M
VCaP cells [3] = format: in vivo, chicken embryo; settings: CAM, 25 mg/kg, p=0.03
Experimental: The CAM assays were performed as described previously (Brenner et al., 2011; supra). Briefly, fertilized eggs were incubated in a rotary humidified incubator at 38° C. for 10 days. First the CAM was released by applying mild pressure to the hole over the air sac and cutting a square 1 cm^2 window encompassing a second hole near the allantoic vein. Then cultured VCaP cells that stably express Cherry Red and pre-treated with peptidomimetics as indicated were detached by trypsinization and re-suspended in complete medium and 2×10^6 cells were implanted adjacent to the mesenchyme in each egg. The windows were subsequently sealed and the eggs were returned to a stationary incubator. For invasion and intravasation experiments, implanted eggs were treated with 25 mg/kg body weight of the peptidomimetics 6 hrs after inoculation and both the upper and lower CAM were isolated after 72 hr. Invasive cells were processed and stained for chicken collagen IV as previously described (Brenner et al., 2011; supra). […] The embryonic lungs were harvested and analyzed for the presence of tumor cells by quantitative human alu-specific PCR. […] Quantification of human cells in the extracted DNA was carried out as described (van der Horst et al., Biotechniques 37, 940-942, 944, 946 2004). Fluorogenic TaqMan qPCR probes were used as described above, and DNA copy numbers were quantified.

HUVEC = assay: Matrigel tube formation assay; format: cell-based, human; settings: 10 M, compared to ERG knockdown

T1 sequence (P11308 whole entry, looked up): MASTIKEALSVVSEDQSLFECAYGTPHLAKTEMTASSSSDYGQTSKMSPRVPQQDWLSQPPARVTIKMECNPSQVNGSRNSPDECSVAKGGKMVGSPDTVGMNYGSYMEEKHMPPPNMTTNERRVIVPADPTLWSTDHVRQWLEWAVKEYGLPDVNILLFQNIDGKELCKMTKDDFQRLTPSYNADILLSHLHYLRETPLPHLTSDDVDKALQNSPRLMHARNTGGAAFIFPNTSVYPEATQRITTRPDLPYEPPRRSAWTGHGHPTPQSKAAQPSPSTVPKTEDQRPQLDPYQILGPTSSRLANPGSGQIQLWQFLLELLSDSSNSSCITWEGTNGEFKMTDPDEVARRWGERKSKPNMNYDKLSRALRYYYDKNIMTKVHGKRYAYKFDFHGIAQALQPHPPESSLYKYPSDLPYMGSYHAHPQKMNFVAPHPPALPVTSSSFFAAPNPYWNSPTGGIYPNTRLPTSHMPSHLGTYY

CC(C)C[C@H](NC(=O)[C@H](Cc1ccccc1)NC(=O)[C@@H]1CCCN1C(=O)[C@@H]1CCCN1C(=O)CN1CCN(C)CC1)C(N)=O [4PL-3F, Pip- PPFL -NH2] ({Acetyl(4-Me-piperazin-1-yl)}-PPFL-NH2; N-terminus assumed)
Kd (ERG): 3.9 µM

CC(C)C[C@@H](NC(=O)[C@@H](CO)NC(=O)[C@@H](Cc1ccccc1)NC(=O)CNC(=O)[C@@H](CO)NC(=O)[C@@H](CC(C)C)NC(=O)[C@H]1CCCN1C(=O)CNC(=O)CNC(=O)[C@@H](CCCNC(=N)N)NC(=O)[C@@H](CCCCN)NC(=O)[C@@H](CCCCN)NC(=O)[C@@H](CCCNC(=N)N)NC(=O)[C@@H](CCCNC(=N)N)NC(=O)[C@@H](CCC(N)=O)NC(=O)[C@@H](CCCNC(=N)N)NC(=O)[C@@H](CCCNC(=N)N)NC(=O)[C@@H](CCCNC(=N)N)NC(=O)CN)C(=O)O [RI-EIP2] (H-G[dR][dR][dR][dQ][dR][dR][dK][dK][dR]GG[dP][dL][dS]G[dF][dS][dL]-OH)
effect on VCaP cell proliferation (VCaP cells [1]): inhibitory effect | effect on ETV1 protein in LNCaP cells (ETV1): significantly destabilized

C[C@H](NC(=O)[C@H](Cc1ccc(O)cc1)NC(=O)[C@@H]1CCCN1C(=O)[C@@H]1CCCN1C(=O)CN1CCN(C)CC1)C(N)=O [4PL-4A, Pip- PPYA -NH2] ({Acetyl(4-Me-piperazin-1-yl)}-PPYA-NH2; N-terminus assumed)
Kd (ERG): 7.9 µM

CC(C)C[C@H](NC(=O)[C@H](Cc1ccc(O)cc1)NC(=O)[C@@H]1CCCN1C(=O)[C@@H]1CCCN1C(=O)[C@H](CC(C)C)NC(=O)CCCC[C@@H]1SC[C@@H]2NC(=O)N[C@@H]21)C(=O)N[C@@H](Cc1ccccc1)C(=O)N[C@H](C(=O)O)[C@@H](C)O [Biotin-EIP1, Biotin-LPPYLFT] (Biotin-LPPYLFT-OH)
pull-down of ERG_Y373A (ERG_Y373A): not

CC(C)C[C@@H](NC(=O)[C@H]1CCCN1C(=O)[C@H]1CCCN1C(=O)[C@@H](Cc1ccc(O)cc1)NC(=O)[C@@H](CC(C)C)NC(=O)[C@@H](Cc1ccccc1)NC(=O)[C@H](NC(=O)CNC(=O)CNC(=O)[C@@H](CCCNC(=N)N)NC(=O)[C@@H](CCCCN)NC(=O)[C@@H](CCCCN)NC(=O)[C@@H](CCCNC(=N)N)NC(=O)[C@@H](CCCNC(=N)N)NC(=O)[C@@H](CCC(N)=O)NC(=O)[C@@H](CCCNC(=N)N)NC(=O)[C@@H](CCCNC(=N)N)NC(=O)[C@@H](CCCNC(=N)N)NC(=O)CN)[C@H](C)O)C(=O)O [RI-EIP1] (H-G[dR][dR][dR][dQ][dR][dR][dK][dK][dR]GG[dT][dF][dL][dY][dP][dP][dL]-OH)
tumor volume [2]: significantly reduced tumor volume | effect on VCaP cell proliferation (VCaP cells [1]): inhibitory effect | MS1 cell tube formation (MS1): did not have a significant effect | effect on ETV1 protein in LNCaP cells (ETV1): significantly destabilized | lung metastases from VCaP tumors (VCaP cells [3]): dramatically reduced | HUVEC cell tube formation (HUVEC): did not have a significant effect

CN1CCN(CC(=O)N2CCC[C@H]2C(=O)N2CCC[C@H]2C(=O)N[C@@H](Cc2ccc(O)cc2)C(=O)N[C@@H](CC2CCCCC2)C(N)=O)CC1 [4PL-4Cha, Pip- PPYCha -NH2] ({Acetyl(4-Me-piperazin-1-yl)}-PPY[Cha]-NH2; N-terminus assumed)
Kd (ERG): 29.3 µM

CN1CCN(CC(=O)N2CCC[C@H]2C(=O)N2CCC[C@H]2C(=O)N[C@@H](Cc2ccc(O)cc2)C(=O)N[C@H](C(N)=O)C2CCCC2)CC1 [4PL-4Cpg, Pip- PPYCpg -NH2] ({Acetyl(4-Me-piperazin-1-yl)}-PPY[Gly(cPent)]-NH2; N-terminus assumed)
Kd (ERG): 21.4 µM

Reference: patent US10774122B2, “ERG targeted therapy” (The Regents of the University of Michigan, priority 2017, dated 2020)
